PubChem BioAssay (NCATS)
This list was built around the results that the source calls inconclusive (neither active nor inactive); the mix of calls is not that of the screen. No potency is given beside an inconclusive call; the fits are too rough. Activity calls are given as the source filed them. The call rests on the fitted dose curve; in most records, active means well fitted inhibition curve with a large enough effect; inconclusive means small, poorly fitted or top-dose-only effect; inactive means flat fitted curve, though single readings scatter.

test: qHTS for Inhibitors of Plasmodium falciparum (7G8) proliferation (AID 504316); further: nearly all actives have a fitted effect of over 65% in size; conditions: P. falciparum 7G8 in erythrocytes, SYBR Green DNA, 72 h; series mostly up to 6.7 µM
Method in brief: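 Parasite growth measured as SYBR Green DNA fluorescence (ex 485, em 535 nm) after overnight lysis following 72 h culture at 37 °C, 0.3% parasitemia, 2.5% hematocrit. Values normalized against DMSO and 0.29 uM artemisinin controls, with plate-stack correction.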
Potency means the concentration at half of the fitted maximal effect; tags describe the fitted curve by direction and shape.

SMILES	Potency
CC(=O)OC[C@H]1O[C@H](C#CC(C)(C)C)C=C[C@H]1OC(C)=O	inactive
COC(=O)C1=C(C(=O)OC)[C@@H]2N(C)c3ccccc3[C@@]23CCC(=O)N(Cc2cc(OC)c(OC)c(OC)c2)C3=N1	inconclusive [inhibitor, partial curve, poor fit]
COC(=O)CC=C1c2ccccc2C[C@H](OC)[C@@H]1C	inconclusive [inhibitor, single point]
CC1=CC[C@@H](C)O[C@@]2(C1)C(=O)Nc1cccc(Br)c12	inconclusive [inhibitor, full curve, poor fit]
CCN1C(=O)N(S(=O)(=O)c2ccc(C)cc2)C(c2ccccc2)C(C(=O)OC)=C1C (stereo not given)	inactive
O=C(C=Cc1ccccc1)N1CCC[C@H]1CO	inconclusive [activator, partial curve, poor fit]
CC(CCN1CCCCc2nc(C)c(C)cc21)=NO[C@H](C)c1cn([C@H](CO)Cc2ccccc2)nn1	inconclusive [inhibitor, partial curve, poor fit]
COC(=O)[C@H](COC(C)(C)C)NC(=O)O[C@@H]1C(=O)c2cc(OC)ccc2O[C@H]1c1ccc(OC)c(Br)c1	inactive
CC=CC(=O)C[C@H]1CC[C@@H](C)[C@@H](CCO)O1	inconclusive [inhibitor, single point]
COc1ccc(C=CNC(=O)c2ccc(OC)cc2)cc1	inconclusive [inhibitor, partial curve, poor fit]
COC(=O)[C@H]1[C@@H](C)N(Cc2ccccc2)C(=O)N[C@H]1c1ccccc1	inconclusive [inhibitor, partial curve, poor fit]
COC(=O)[C@@H]1C=C[C@H](C)[C@H](CCOc2ccccc2)O1	inconclusive [inhibitor, single point]
CC1(OC(=O)c2cnc3ccccc3n2)C(=O)C=C2C=C(c3ccc(C#N)cc3)OC=C2C1=O (stereo not given)	inconclusive [inhibitor, partial curve, poor fit]
CC(CCC(=O)OC[C@H]1O[C@H](C#Cc2ccccc2)C=C[C@H]1Oc1ccc(C)cc1)=NO[C@@H](C)CN1CCCCc2nc(C)c(C)cc21	inconclusive [inhibitor, partial curve, poor fit]
COc1ccc2c(c1)CO[C@H]([C@H](O)CO)[C@H]2C=Cc1ccccc1	inconclusive [inhibitor, partial curve, poor fit]
COC(=O)C1=C(C)N(Cc2ccccc2)C(=O)NC1c1cccc(C(F)(F)F)c1 (stereo not given)	inconclusive [inhibitor, partial curve, poor fit]
C#CCCCON=C1C[C@@H](O)[C@H](O)[C@H]2[C@@H]3C(=O)N(Cc4ccc5c(c4)OCO5)C(=O)[C@@H]3CC[C@H]12	inconclusive [inhibitor, single point]
COc1ccc2c(c1)O[C@@H](c1cccc(C(F)(F)F)c1)[C@H](OC(=O)Nc1ccc(OC(F)F)cc1)C2=O	inconclusive [inhibitor, single point]
COc1ccc2c(c1)O[C@@H](c1cccc(C(F)(F)F)c1)[C@H](OC(=O)NC1CCCC1)C2=O	inconclusive [inhibitor, partial curve]
COC(=O)CCC(=O)OC1(C)C(=O)C2=CN(Cc3ccco3)C(c3ccc(OC)cc3)=CC2=C(Br)C1=O (stereo not given)	inconclusive [inhibitor, partial curve, poor fit]

SMILES	Potency
COC(=O)CCC(=O)OC1(C)C(=O)C=C2C=C(C3CC3)N(CCc3c[nH]c4ccccc34)C=C2C1=O (stereo not given)	inconclusive [inhibitor, single point]
CC(C)OC(=O)[C@H](C)NC(=O)N1CCc2nc(-c3ccccc3)c3c(c2C1)CO[C@@H](C)C3	inconclusive [inhibitor, single point]
COC/C=C/C1=CC2=CC(=O)C(C)(OC(=O)c3cnc4ccccc4n3)C(=O)C2=CN1Cc1ccc(OC)cc1 (stereo not given)	inactive
COCCN1C=C2C(=O)C(C)(OC(=O)C3CCCC3)C(=O)C(c3ccccc3)=C2C=C1CCCC(=O)OC (stereo not given)	inactive
COC(=O)[C@@]1(C=C[C@@H](C)[C@H](OC)c2ccccc2Br)[C@@H]2OCCC[C@@H]21	inconclusive [inhibitor, full curve]
COc1ccc(O[C@H]2C=C[C@@H](c3ccccc3)O[C@H]2COC(=O)CCC(C)=NOC[C@@H](O)COCc2ccco2)cc1	inconclusive [inhibitor, partial curve]
C=CCN1C=C2C(=O)C(C)(OC(=O)c3ccc(OC)cc3)C(=O)C(c3ccco3)=C2C=C1CCCC (stereo not given)	inconclusive [inhibitor, partial curve, poor fit]
CC(=O)OC[C@H]1O[C@H](C#CCCCc2ccccc2)C=C[C@H]1OC(C)=O	inactive
CC(C)=CCCC(C)=CCON=C1C[C@@H](O)[C@@H](O)[C@@H]2[C@H]3C(=O)N(Cc4ccc5c(c4)OCO5)C(=O)[C@@H]3CC[C@H]12	inconclusive [inhibitor, single point]
COC(=O)[C@@H]1[C@@H](c2ccccc2)NC(=O)N(CCc2cc(OC)c(OC)c(OC)c2)[C@@H]1C	inconclusive [inhibitor, single point]
COc1ccc(COC(=O)NN=C2C[C@@H](O)[C@@H](O)[C@@H]3[C@H]4C(=O)N(Cc5ccccc5)C(=O)[C@@H]4CC[C@@H]23)cc1	inactive
COc1cccc(CO[C@H]2C=C[C@@H](c3ccccc3)O[C@H]2COC(C)=O)c1	inactive
COC/C=C/C1=CC2=CC(=O)C(C)(OC(=O)c3cnc4ccccc4n3)C(=O)C2=CN1Cc1ccc2c(c1)OCO2 (stereo not given)	inactive
COC(=O)C1=C(C(=O)OC)[C@@H]2N(C)c3ccccc3[C@@]23CCC(=O)N(CCCOC(C)C)C3=N1	inconclusive [inhibitor, single point]
COC(=O)C1=C(C(=O)OC)[C@@H]2N(C)c3ccccc3[C@@]23C[C@@H](C(=O)OC)N(S(=O)(=O)c2c(C)noc2C)C3=N1	inconclusive [inhibitor, single point]
COC1=C[C@H](C(=O)NC2CCN(Cc3ccccc3)CC2)[C@@]2(C)Cc3ccccc3[C@@H]2CC1=O	inconclusive [inhibitor, single point]
C=CCOC(=O)N[C@@H](c1cccs1)C(C(C)=O)C(C)=O	inactive
COc1ccc2c(c1)[C@H](C=Cc1ccccc1)[C@@H]([C@H](O)CO)O2	inconclusive [inhibitor, single point]
CC(CCN1CCCCc2nc(C)c(C)cc21)=NO[C@H](C)c1cn([C@@H]2COC[C@@H]2O)nn1	inactive
C[C@]12O[C@@H]1[C@@H](O)C(Br)=C(CO)[C@@H]2O	inactive
